# Data published in the RNAGym collection of RNA variant scans (doi:10.1073/pnas.2313332121).
# Variants at the floor of the assay are shown more often than the library holds them.
# B1: TPR 5TU (parent)
# chain: GGAUCUUCUCGAUCUAACAAAAAAGACAAAUCUGCCACAAAGCUUGAGAGCAUCUUCGGAUGCAGAGGCGGCAGCCUUCGGUGGCGCGAUAGCGCCAACGUUCUCAACUAUGACACGCAAAACGCGUGCUCCGUUGAAUGGAGUUUAUCAUG
# Variants of: B1
# Assay: polymerase ribozyme fitness, log enrichment relative to wild type (log ratio); higher = more active; in vitro selection for triplet polymerase activity
# How it was run: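 Fitness compares each genotype's enrichment to that of the wild type on a logarithmic scale, averaging replicates with inverse-variance weights. The logarithm is base 2. Enrichment came from Illumina sequencing of input and output libraries after one triplicate round of in vitro selection, which included frozen incubation at −7 °C, of PCR-built, transcribed mutant libraries of each subunit of a heterodimeric triplet polymerase ribozyme. Only genotypes with ≥10 input reads and ≥1 read per output were kept.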
row,Variant,polymerase ribozyme fitness (log ratio)
1,C14U G48A A64C U90C U102G C103G A115G A122G U127A A150C,≤ -4.2
2,C14U G48C U61A U82G G92A C96G G152U,≤ -4.2
3,C14U G50A G58C G65A C103A A107U G124U U127G,≤ -4.2
4,C14U G50C A89G C99G U148C U151A,≤ -4.2
5,C14U G50C G74C C93U A115U C116U,≤ -4.2
6,C14U G50C U55A G86U C105G G117C,≤ -4.2
7,C14U G50U,-1.15
8,C14U G59A C96G C131G G133U,≤ -4.2
9,C14U G59U U61C C108A U109G G117A,≤ -4.2
10,C14U G67A U151C,≤ -4.2
11,C14U G81A,-1.14
12,C14U G83U G88C A147G,≤ -4.2
13,C14U G88A A91G,≤ -4.2
14,C14U G92C A150U,-4.2
15,C14U U15C A23C U44A C57U U135C,≤ -4.2
16,C14U U15C A23U A41U C85A,≤ -4.2
17,C14U U31G G92A C103U U109G,≤ -4.2
18,C14U U53A U77A G88U G94A G133A A137U A142U,≤ -4.2
19,C14U U53G G68C G84U,≤ -4.2
20,C14U U53G G94C A98G C123G,≤ -4.2
21,C14U U61G A64C A66C U151G,≤ -4.2
22,C14U U61G C87U C125G,≤ -4.2
23,C14U U144G,-0.898
24,U15A,-0.182

row,Variant,polymerase ribozyme fitness (log ratio)
1,U15A A19C A52G G83A C103G,-3.83
2,U15A A20G A28U C38A A49G G70C G133U U144G,≤ -4.2
3,U15A A21C A28C G67C A113C G128U,≤ -4.2
4,U15A A21G C36G A60C C96A G124A A142C,≤ -4.2
5,U15A A24G C85U A107C U111A U135A,≤ -4.2
6,U15A A26C G34U C105G G143C,≤ -4.2
7,U15A A39C C123U A137C U151C,≤ -4.2
8,U15A A39G U53A A73U C85U G124U U134C U135C,≤ -4.2
9,U15A A47G U56A C57U G124C C149U,-2.48
10,U15A A52C A66C G84U,≤ -4.2
11,U15A A66G C75U G100A A106G C125G G152A,≤ -4.2
12,U15A C18G A52C C54U C87G C96U A106G,≤ -4.2
13,U15A C18G C87A A97G A142C,≤ -4.2
14,U15A C18U A19U A26G C27U A49C U144A,≤ -4.2
15,U15A C27G U55A C57G G94U C105U G136A G143U,≤ -4.2
16,U15A C38A A41C C75U U135C,-3.63
17,U15A C38U G58A U61G G68A G83A C87G A106C U145C,≤ -4.2
18,U15A C54U G92A,-3
19,U15A C63U U151A,-3.9
20,U15A C96U G126U U130A,≤ -4.2
21,U15A G46C G92U C93A A113U U139G,≤ -4.2
22,U15A G48C G83U,-2.41
23,U15A G59U C79G C93A U134A,≤ -4.2
24,U15A U33A C38U U44G G84U A142G,≤ -4.2

row,Variant,polymerase ribozyme fitness (log ratio)
1,U15A U55A U56A C69U C79U G86A A91U G133A G141A,≤ -4.2
2,U15C,0.917
3,U15C A16G G59U A60G G92A C116U,-0.967
4,U15C A16U A24U G68C,≤ -4.2
5,U15C A20G A21U A39U C76U C85A C103A C108U,≤ -4.2
6,U15C A20G A97G G140A,-3.64
7,U15C A21C U61A G62C C95A U104A A138U,≤ -4.2
8,U15C A22G A47C U55A G88C U139C,≤ -4.2
9,U15C A22G G42A G84A G133U,≤ -4.2
10,U15C A28C C85G A120G A137G G143C U146G,≤ -4.2
11,U15C A39C G67U G84U U90G A106U A107G A110U,≤ -4.2
12,U15C A39C U44C C93U C108G A121C U139G,≤ -4.2
13,U15C A40U G83A C87A A142U C149U,≤ -4.2
14,U15C C32A A40C C51G C76U A91G A138U,≤ -4.2
15,U15C C36A A60U C85G C116U,≤ -4.2
16,U15C C36A G59A C87G A113U G143C,≤ -4.2
17,U15C C38U G86U A91U G126U U134G A142G,≤ -4.2
18,U15C C51A G86U,-1.6
19,U15C G34C C57A G84U A98U,-2.33
20,U15C G50C G88A C105U C129U,≤ -4.2
21,U15C G71C G92A A106U C114A,≤ -4.2
22,U15C G88A U102G,≤ -4.2
23,U15C U53A A98G C105G U146G,≤ -4.2
24,U15G,-0.334

row,Variant,polymerase ribozyme fitness (log ratio)
1,U15G A16U U53A G59C A60G C87G C95A C96U,≤ -4.2
2,U15G A17G A41U C87U A121U U127A,≤ -4.2
3,U15G A19C A47C G80A C85U C87G C105G,≤ -4.2
4,U15G A19G A23U C32A C36U A37G A40U C103G,≤ -4.2
5,U15G A19U C54U G68U C85G A91U G126U G128U,≤ -4.2
6,U15G A20U C27A A29C A40U U61A G86U C103G C132A G140A,≤ -4.2
7,U15G A21U A39G A47G G83A A142G,-3.92
8,U15G A21U U90G A122U C125A A137U,≤ -4.2
9,U15G A22U U56A A66C G117A A138G U146C,≤ -4.2
10,U15G A24C C35A A107U A147U,≤ -4.2
11,U15G A24G A52C G86C C105G,≤ -4.2
12,U15G A24U G92A A138G G141U,≤ -4.2
13,U15G A26G A52U U53A G65A G80U C87G C96G A97G C108G,≤ -4.2
14,U15G A26U C38G G42A U44A C95G C99U,≤ -4.2
15,U15G A28C G83U U148G,≤ -4.2
16,U15G A29C G42C A91G G92A C103U A115C A137U,≤ -4.2
17,U15G A29U G100C C118A C123A G133U A142U,≤ -4.2
18,U15G A37C A47C C95U,-1.64
19,U15G A37G A60U A66C G86A C95A G126A,≤ -4.2
20,U15G A37U A52C U82G C85U G86A U139A U146C,≤ -4.2
21,U15G A37U U44A G48C A64G G92A,≤ -4.2
22,U15G A39C A49C G84U C108U U130G,≤ -4.2
23,U15G A39U A91U A120G U148G,≤ -4.2
24,U15G A39U C72U A91U A147U A150C,≤ -4.2

row,Variant,polymerase ribozyme fitness (log ratio)
1,U15G A41C G68U C79U G80A A119U,≤ -4.2
2,U15G A47C C57U C96A C108G,≤ -4.2
3,U15G A73U C93U A120G,-2.43
4,U15G A98G A122C G124U,-1.76
5,U15G C18G A20G G80C C85G A106C U139G,≤ -4.2
6,U15G C18G A40U,-1.5
7,U15G C27A C75A C85U C116A,≤ -4.2
8,U15G C27G G50A A52C A64G C99U G136C,≤ -4.2
9,U15G C27U G83A A121C,-2.52
10,U15G C32G A40C A49C A52G C76U C87U,≤ -4.2
11,U15G C32G C54A G86A,≤ -4.2
12,U15G C35G G50C C96G G143U,≤ -4.2
13,U15G C36U A47G A89G G92C A115U C129A,≤ -4.2
14,U15G C43U G59A G94U,≤ -4.2
15,U15G C54G C87G,≤ -4.2
16,U15G C54U G94C U127G G141C,≤ -4.2
17,U15G C57A C75U U78G C93U C108U A110G,≤ -4.2
18,U15G C69A C96U,-1.09
19,U15G C85U,-0.0947
20,U15G C85U C87A,≤ -4.2
21,U15G C87U G88C A120G,≤ -4.2
22,U15G C93U,-2.61
23,U15G C99U A142U,-1.77
24,U15G C116U,0.239

row,Variant,polymerase ribozyme fitness (log ratio)
1,U15G G42A A47G U135G,≤ -4.2
2,U15G G48U C54U C123A G136U,-2.93
3,U15G G62A G83C C108U C125G,≤ -4.2
4,U15G G94C A115C C116G,-3.85
5,U15G U31A,0.571
6,U15G U44A A60G U61A G62U C87G A91G C96A A110G U146C,≤ -4.2
7,U15G U55A A97G C105U A107G A113G C131G,≤ -4.2
8,U15G U56G U77C C87G G94A U104G A106U C123U,≤ -4.2
9,A16C A17C A20U A30U A37C U55G C93G C103A A119G,≤ -4.2
10,A16C A17C A24C U61A C93U U111A C123G,≤ -4.2
11,A16C A17C G25U C79A C87A A150G,≤ -4.2
12,A16C A17G G58U C87A C93A,≤ -4.2
13,A16C A20C A23C C35U U82A G83U,≤ -4.2
14,A16C A20C A41C C85G C116U,-3.81
15,A16C A20U A28U C35A G50U G59C G84A C87G C96U C103A U148A,≤ -4.2
16,A16C A21C C57A G88U C103G,≤ -4.2
17,A16C A21C C57A G88U C103G U130G,≤ -4.2
18,A16C A21G C54A C95A,-3.07
19,A16C A21U C87U U111G U145A,≤ -4.2
20,A16C A21U U55A C87U U111C,≤ -4.2
21,A16C A22U A39U U56G U61A A91U,≤ -4.2
22,A16C A24C A37C A40C C95U,≤ -4.2
23,A16C A24G A73C A121G,≤ -4.2
24,A16C A24G G68U C69A A121G G143A,≤ -4.2

row,Variant,polymerase ribozyme fitness (log ratio)
1,A16C A26U,-2.62
2,A16C A29G G68A G83C C99A,≤ -4.2
3,A16C A29U A41U G50C U135G G140C U148C,≤ -4.2
4,A16C A40G A49U G84A A98G G117A A122G U151C,≤ -4.2
5,A16C A40U A137C,≤ -4.2
6,A16C A49G A52U C72A C85U A121G U145G,≤ -4.2
7,A16C A60U C72U G100U C125U C129U,≤ -4.2
8,A16C A64G A66U G68C G92U,≤ -4.2
9,A16C A66C G80A,≤ -4.2
10,A16C C18A C35G U55A C57A U77G A106G A110G G140U A150G,≤ -4.2
11,A16C C18G A20G A30U G58C A64G C75G C93G C132G,≤ -4.2
12,A16C C27A C85G C99U A106C,≤ -4.2
13,A16C C27U U31C G50C C93A G140C,≤ -4.2
14,A16C C32A C51U A91U U104C U145A,≤ -4.2
15,A16C C32U,-2.43
16,A16C C32U A122G,-3.01
17,A16C C35G G50A G58A G80U C95A C105U A113C,≤ -4.2
18,A16C C35U G50U G58C A64G C79A C99U U146C U151G,≤ -4.2
19,A16C C36U C54U A107U G140C,≤ -4.2
20,A16C C51G U77G C87A C103A U109A,≤ -4.2
21,A16C C51U C75G G94A A107U,≤ -4.2
22,A16C C57U C129U G143A,-1.91
23,A16C C87U G128U,≤ -4.2
